Measured values from the supplement of paper PMC8728848.
This is one part of the list.

Experiments:
Assay in all cases: glycan array binding signal (z-score within array); higher = stronger binding
Conditions in all cases: glycan notation: IUPAC condensed, linker removed
Gal(b1-2)Gal = molecular target: Gal(b1-2)Gal
Summary of the method: (§1)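 Glycan array binding is given as a within-array Z-score, which can be read as non-binding when negative. The arrays, 3228 of them, came from the Consortium for Functional Glycomics database and were retained only where the protein sequence was available. Z-scores were averaged across arrays of the same protein sequence at different concentrations or buffers and across linkers.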

Gal(b1-3)Gal = molecular target: Gal(b1-3)Gal
Summary of the method: as §1

Gal(b1-3)Gal(b1-4)GlcNAc = molecular target: Gal(b1-3)Gal(b1-4)GlcNAc
Summary of the method: as §1

Gal(b1-3)GalNAc = molecular target: Gal(b1-3)GalNAc
Summary of the method: as §1

[1] = molecular target: Gal(b1-3)GalNAc(a1-3)[Fuc(a1-2)]Gal(b1-4)Glc
Summary of the method: as §1

[2] = molecular target: Gal(b1-3)GalNAc(a1-3)[Fuc(a1-2)]Gal(b1-4)GlcNAc
Summary of the method: as §1

Gal(b1-3)GalNAc(b1-3)Gal = molecular target: Gal(b1-3)GalNAc(b1-3)Gal
Summary of the method: as §1

[3] = molecular target: Gal(b1-3)GalNAc(b1-3)Gal(a1-4)Gal(b1-4)Glc
Summary of the method: as §1

[4] = molecular target: Gal(b1-3)GalNAc(b1-4)Gal(b1-4)Glc
Summary of the method: as §1

[5] = molecular target: Gal(b1-3)GalNAc(b1-4)[Neu5Ac(a2-3)]Gal(b1-4)Glc
Summary of the method: as §1

Gal(b1-3)GlcNAc = molecular target: Gal(b1-3)GlcNAc
Summary of the method: as §1

[6] = molecular target: Gal(b1-3)GlcNAc(a1-3)Gal(b1-4)GlcNAc
Summary of the method: as §1

[7] = molecular target: Gal(b1-3)GlcNAc(a1-6)Gal(b1-4)GlcNAc
Summary of the method: as §1

Gal(b1-3)GlcNAc(b1-2)Man = molecular target: Gal(b1-3)GlcNAc(b1-2)Man
Summary of the method: as §1

[8] = molecular target: Gal(b1-3)GlcNAc(b1-2)Man(a1-3)[Gal(b1-3)GlcNAc(b1-2)Man(a1-6)]Man(b1-4)GlcNAc(b1-4)GlcNAc
Summary of the method: as §1

[9] = molecular target: Gal(b1-3)GlcNAc(b1-2)Man(a1-3)[Gal(b1-3)GlcNAc(b1-2)Man(a1-6)]Man(b1-4)GlcNAc(b1-4)[Fuc(a1-6)]GlcNAc
Summary of the method: as §1

[10] = molecular target: Gal(b1-3)GlcNAc(b1-2)Man(a1-3)[GlcNAc(b1-4)][Gal(b1-3)GlcNAc(b1-2)Man(a1-6)]Man(b1-4)GlcNAc(b1-4)GlcNAc
Summary of the method: as §1

[11] = molecular target: Gal(b1-3)GlcNAc(b1-2)[Gal(b1-3)GlcNAc(b1-6)]Man(a1-6)[Gal(b1-3)GlcNAc(b1-2)Man(a1-3)]Man(b1-4)GlcNAc(b1-4)GlcNAc
Summary of the method: as §1

[12] = molecular target: Gal(b1-3)GlcNAc(b1-3)Gal(b1-3)GlcNAc
Summary of the method: as §1

[13] = molecular target: Gal(b1-3)GlcNAc(b1-3)Gal(b1-4)Glc
Summary of the method: as §1

[14] = molecular target: Gal(b1-3)GlcNAc(b1-3)Gal(b1-4)GlcNAc
Summary of the method: as §1

[15] = molecular target: Gal(b1-3)GlcNAc(b1-3)Gal(b1-4)GlcNAc(b1-2)Man(a1-3)[Gal(b1-3)GlcNAc(b1-3)Gal(b1-4)GlcNAc(b1-2)Man(a1-6)]Man(b1-4)GlcNAc(b1-4)GlcNAc
Summary of the method: as §1

[16] = molecular target: Gal(b1-3)GlcNAc(b1-3)Gal(b1-4)GlcNAc(b1-2)[Gal(b1-3)GlcNAc(b1-3)Gal(b1-4)GlcNAc(b1-6)]Man(a1-6)[Gal(b1-3)GlcNAc(b1-3)Gal(b1-4)GlcNAc(b1-2)Man(a1-3)]Man(b1-4)GlcNAc(b1-4)[Fuc(a1-6)]GlcNAc
Summary of the method: as §1

[17] = molecular target: Gal(b1-3)GlcNAc(b1-3)Gal(b1-4)GlcNAc(b1-3)Gal(b1-4)GlcNAc(b1-2)[Gal(b1-3)GlcNAc(b1-3)Gal(b1-4)GlcNAc(b1-3)Gal(b1-4)GlcNAc(b1-6)]Man(a1-6)[Gal(b1-3)GlcNAc(b1-3)Gal(b1-4)GlcNAc(b1-3)Gal(b1-4)GlcNAc(b1-2)Man(a1-3)]Man(b1-4)GlcNAc(b1-4)[Fuc(a1-6)]GlcNAc
Summary of the method: as §1

[18] = molecular target: Gal(b1-3)GlcNAc(b1-3)Gal(b1-4)GlcNAc(b1-6)[Gal(b1-3)GlcNAc(b1-3)]Gal(b1-4)Glc
Summary of the method: as §1

[19] = molecular target: Gal(b1-3)GlcNAc(b1-3)Gal(b1-4)[Fuc(a1-3)]GlcNAc
Summary of the method: as §1

[20] = molecular target: Gal(b1-3)GlcNAc(b1-3)Gal(b1-4)[Fuc(a1-3)]GlcNAc(b1-6)[Gal(b1-3)GlcNAc(b1-3)]Gal(b1-4)Glc
Summary of the method: as §1

[21] = molecular target: Gal(b1-3)GlcNAc(b1-3)GalNAc
Summary of the method: as §1

[22] = molecular target: Gal(b1-3)GlcNAc(b1-6)Gal(b1-4)GlcNAc
Summary of the method: as §1

[23] = molecular target: Gal(b1-3)GlcNAc(b1-6)GalNAc
Summary of the method: as §1

[24] = molecular target: Gal(b1-3)GlcNAc(b1-6)[Gal(b1-3)]GalNAc
Summary of the method: as §1

Gal(b1-3)GlcNAc6S = molecular target: Gal(b1-3)GlcNAc6S
Summary of the method: as §1

[25] = molecular target: Gal(b1-3)[Fuc(a1-4)]GlcNAc
Summary of the method: as §1

[26] = molecular target: Gal(b1-3)[Fuc(a1-4)]GlcNAc(b1-2)Man
Summary of the method: as §1

[27] = molecular target: Gal(b1-3)[Fuc(a1-4)]GlcNAc(b1-2)Man(a1-3)[Gal(b1-3)[Fuc(a1-4)]GlcNAc(b1-2)Man(a1-6)]Man(b1-4)GlcNAc(b1-4)[Fuc(a1-6)]GlcNAc
Summary of the method: as §1

[28] = molecular target: Gal(b1-3)[Fuc(a1-4)]GlcNAc(b1-3)Gal(b1-3)[Fuc(a1-4)]GlcNAc
Summary of the method: as §1

[29] = molecular target: Gal(b1-3)[Fuc(a1-4)]GlcNAc(b1-3)Gal(b1-4)[Fuc(a1-3)]GlcNAc
Summary of the method: as §1

[30] = molecular target: Gal(b1-3)[Fuc(a1-4)]GlcNAc(b1-6)GalNAc
Summary of the method: as §1

[31] = molecular target: Gal(b1-3)[GlcNAc(b1-6)]GalNAc
Summary of the method: as §1

[32] = molecular target: Gal(b1-3)[Neu5Ac(a2-6)]GalNAc
Summary of the method: as §1

[33] = molecular target: Gal(b1-3)[Neu5Ac(a2-6)]GlcNAc(b1-4)Gal(b1-4)Glc
Summary of the method: as §1

[34] = molecular target: Gal(b1-3)[Neu5Ac(b2-6)]GalNAc
Summary of the method: as §1

Gal(b1-4)Gal = molecular target: Gal(b1-4)Gal
Summary of the method: as §1

[35] = molecular target: Gal(b1-4)GalNAc(a1-3)[Fuc(a1-2)]Gal(b1-4)GlcNAc
Summary of the method: as §1

[36] = molecular target: Gal(b1-4)GalNAc(b1-3)[Fuc(a1-2)]Gal(b1-4)GlcNAc
Summary of the method: as §1

B1: Cohesin-hMARCO (Homo sapiens) (protein)
chain: LDDLDAVRIKVDTVNAKPGDTVRIPVRFSGIPSKGIANCDFVYSYDPNVLEIIEIEPGDIIVDPNPDKSFDTAVYPDRKIIVFLFAEDSGTGAYAITKDGVFATIVAKVKEGAPNGLSVIKFVEVGGFANNDLVEQKTQFFDGGANVGDTTEPATPTTPVTTPTTTDDLDAASVRIVGSSNRGRAEVYYSGTWGTICDDEWQNSDAIVFCRMLGYSKGRALYKVGAGTGQIWLDNVQCRGTESTLWSCTKNSWGHHDCSHEEDAGVECSVHHHHHH
Gal(b1-2)Gal
  glycan array binding signal (z-score): 2.18
Gal(b1-3)Gal
  glycan array binding signal (z-score): -0.397
Gal(b1-3)Gal(b1-4)GlcNAc
  glycan array binding signal (z-score): -0.262
Gal(b1-3)GalNAc
  glycan array binding signal (z-score): 0.061
[1]
  glycan array binding signal (z-score): -0.355
[2]
  glycan array binding signal (z-score): -0.331
Gal(b1-3)GalNAc(b1-3)Gal
  glycan array binding signal (z-score): -0.503
[3]
  glycan array binding signal (z-score): -0.312
[4]
  glycan array binding signal (z-score): -0.42
[5]
  glycan array binding signal (z-score): -0.42
Gal(b1-3)GlcNAc
  glycan array binding signal (z-score): -0.318
[6]
  glycan array binding signal (z-score): -0.433
[7]
  glycan array binding signal (z-score): -0.309
Gal(b1-3)GlcNAc(b1-2)Man
  glycan array binding signal (z-score): -0.288
[8]
  glycan array binding signal (z-score): -0.103
[9]
  glycan array binding signal (z-score): -0.443
[10]
  glycan array binding signal (z-score): -0.377
[11]
  glycan array binding signal (z-score): -0.44
[12]
  glycan array binding signal (z-score): -0.434
[13]
  glycan array binding signal (z-score): -0.566
[14]
  glycan array binding signal (z-score): -0.396
[15]
  glycan array binding signal (z-score): 0.015
[16]
  glycan array binding signal (z-score): -0.029
[17]
  glycan array binding signal (z-score): -0.216
[18]
  glycan array binding signal (z-score): -0.529
[19]
  glycan array binding signal (z-score): -0.35
[20]
  glycan array binding signal (z-score): -0.502
[21]
  glycan array binding signal (z-score): -0.344
[22]
  glycan array binding signal (z-score): -0.239
[23]
  glycan array binding signal (z-score): 1.7
[24]
  glycan array binding signal (z-score): -0.319
Gal(b1-3)GlcNAc6S
  glycan array binding signal (z-score): -0.327
[25]
  glycan array binding signal (z-score): 0.355
[26]
  glycan array binding signal (z-score): -0.403
[27]
  glycan array binding signal (z-score): 0.041
[28]
  glycan array binding signal (z-score): 5.33
[29]
  glycan array binding signal (z-score): -0.252
[30]
  glycan array binding signal (z-score): -0.154
[31]
  glycan array binding signal (z-score): -0.335
[32]
  glycan array binding signal (z-score): -0.392
[33]
  glycan array binding signal (z-score): -0.257
[34]
  glycan array binding signal (z-score): -0.305
Gal(b1-4)Gal
  glycan array binding signal (z-score): 0.028
[35]
  glycan array binding signal (z-score): -0.348
[36]
  glycan array binding signal (z-score): -0.311
